We go through four molecules from paper PMC10193017.

By UniProt entry, the sequences of proteins in these tests, tags left out.
UniProt Q9WTQ8: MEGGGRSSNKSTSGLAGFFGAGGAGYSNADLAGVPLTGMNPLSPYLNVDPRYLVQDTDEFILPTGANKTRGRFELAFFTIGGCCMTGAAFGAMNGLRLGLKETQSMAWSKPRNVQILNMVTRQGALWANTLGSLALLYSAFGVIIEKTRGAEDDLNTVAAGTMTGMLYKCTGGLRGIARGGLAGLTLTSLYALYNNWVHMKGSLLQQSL

The target in experiment [1] is T1, NADPH oxidase 4 (NOX4), endogenous in cultured macrophages (not stated (endogenous in a macrophage cell line; mouse alveolar macrophage and human THP-1 lines were cultured)) (UniProt Q9NPH5).
T1 sequence: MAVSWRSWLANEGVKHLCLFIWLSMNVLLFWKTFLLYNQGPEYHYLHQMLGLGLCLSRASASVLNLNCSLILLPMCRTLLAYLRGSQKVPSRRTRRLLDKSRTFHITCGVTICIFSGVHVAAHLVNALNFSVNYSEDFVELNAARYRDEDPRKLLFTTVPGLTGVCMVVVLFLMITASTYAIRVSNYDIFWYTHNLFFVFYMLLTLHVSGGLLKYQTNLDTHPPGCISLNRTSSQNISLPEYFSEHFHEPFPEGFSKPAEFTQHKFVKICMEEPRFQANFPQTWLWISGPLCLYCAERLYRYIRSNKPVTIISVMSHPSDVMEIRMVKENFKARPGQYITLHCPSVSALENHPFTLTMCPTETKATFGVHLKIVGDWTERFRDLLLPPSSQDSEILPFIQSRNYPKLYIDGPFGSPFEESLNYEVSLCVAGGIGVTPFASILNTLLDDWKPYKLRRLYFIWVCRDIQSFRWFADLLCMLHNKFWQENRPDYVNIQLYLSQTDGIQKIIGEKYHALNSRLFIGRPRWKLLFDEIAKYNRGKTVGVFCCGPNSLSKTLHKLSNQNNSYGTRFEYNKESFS
Put plainly: co-IP; NOX4 immunoprecipitation from macrophage cell lysates, immunoblot for TIM23; cells with or without asbestos exposure.

Experiment [2] addresses T1, NADPH oxidase 4 (NOX4), endogenous in cultured macrophages (not stated (endogenous in a macrophage cell line; mouse alveolar macrophage and human THP-1 lines were cultured)). Put plainly: co-IP; NOX4 immunoprecipitation from isolated mitochondria of macrophages (digitonin, then sonication), immunoblot for TIM23; with or without asbestos exposure. On the technique in general: Immunoblotting shows a protein as a band on a membrane.

For experiment [3], the target named is T2, GST-NOX4 213aa mutant (human) (UniProt Q9NPH5).
T2 sequence: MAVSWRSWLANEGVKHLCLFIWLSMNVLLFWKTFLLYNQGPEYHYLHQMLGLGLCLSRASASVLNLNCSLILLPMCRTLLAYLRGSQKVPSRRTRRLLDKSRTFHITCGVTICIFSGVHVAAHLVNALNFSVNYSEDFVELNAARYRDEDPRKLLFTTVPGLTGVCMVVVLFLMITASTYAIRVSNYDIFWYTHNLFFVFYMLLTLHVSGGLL
The experiment is described as follows: co-IP; immunoprecipitation of transfected C-terminally GST-tagged human NOX4 full-length and truncated constructs, immunoblot for TIM23; cell type not stated.

For experiment [4], the target named is T3, full-length GST-NOX4 (human) (UniProt Q9NPH5).
T3 sequence: T1 sequence
Described as above.

For experiment [5], the target named is T4, GST-NOX4 143aa mutant (human) (UniProt Q9NPH5).
T4 sequence: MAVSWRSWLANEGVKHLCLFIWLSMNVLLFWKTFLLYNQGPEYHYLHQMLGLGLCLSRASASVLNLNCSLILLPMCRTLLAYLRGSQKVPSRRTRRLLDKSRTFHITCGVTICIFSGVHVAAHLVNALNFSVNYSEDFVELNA
The description is as above.

The target of experiment [6] is T5, GST-NOX4 447aa mutant (human) (UniProt Q9NPH5).
T5 sequence: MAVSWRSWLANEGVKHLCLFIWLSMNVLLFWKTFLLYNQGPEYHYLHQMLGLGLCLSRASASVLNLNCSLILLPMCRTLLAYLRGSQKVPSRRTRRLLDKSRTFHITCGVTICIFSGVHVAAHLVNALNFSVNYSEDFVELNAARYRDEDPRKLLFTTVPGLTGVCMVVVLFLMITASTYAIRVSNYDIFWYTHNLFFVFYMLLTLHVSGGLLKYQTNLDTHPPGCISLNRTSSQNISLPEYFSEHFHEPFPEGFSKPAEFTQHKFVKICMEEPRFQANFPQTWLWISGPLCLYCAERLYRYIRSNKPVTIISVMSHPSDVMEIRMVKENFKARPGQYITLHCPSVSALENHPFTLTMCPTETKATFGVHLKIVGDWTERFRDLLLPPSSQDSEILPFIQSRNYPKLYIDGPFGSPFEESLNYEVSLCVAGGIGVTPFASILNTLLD
Described as above.

Experiment [7] addresses T6, GST-NOX4 124aa mutant (human) (UniProt Q9NPH5).
T6 sequence: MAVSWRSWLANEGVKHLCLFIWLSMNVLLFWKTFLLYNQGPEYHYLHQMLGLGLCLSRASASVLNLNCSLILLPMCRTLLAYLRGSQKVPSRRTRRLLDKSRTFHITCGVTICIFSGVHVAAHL
The experiment is described as above.

The target of experiment [8] is T7, NOX4, endogenous in human BAL lung macrophages (human (endogenous in BAL macrophages)) (UniProt Q9NPH5).
T7 sequence: T1 sequence
The experiment is described as follows: co-IP; NOX4 immunoprecipitation from BAL lung macrophages of normal and asbestosis subjects, immunoblot for TIM23.

The target in experiment [9] is T8, NOX4, endogenous in lung macrophages of Nox4 fl/fl mice (mouse (endogenous in lung macrophages of mice)) (UniProt Q9JHI8).
T8 sequence: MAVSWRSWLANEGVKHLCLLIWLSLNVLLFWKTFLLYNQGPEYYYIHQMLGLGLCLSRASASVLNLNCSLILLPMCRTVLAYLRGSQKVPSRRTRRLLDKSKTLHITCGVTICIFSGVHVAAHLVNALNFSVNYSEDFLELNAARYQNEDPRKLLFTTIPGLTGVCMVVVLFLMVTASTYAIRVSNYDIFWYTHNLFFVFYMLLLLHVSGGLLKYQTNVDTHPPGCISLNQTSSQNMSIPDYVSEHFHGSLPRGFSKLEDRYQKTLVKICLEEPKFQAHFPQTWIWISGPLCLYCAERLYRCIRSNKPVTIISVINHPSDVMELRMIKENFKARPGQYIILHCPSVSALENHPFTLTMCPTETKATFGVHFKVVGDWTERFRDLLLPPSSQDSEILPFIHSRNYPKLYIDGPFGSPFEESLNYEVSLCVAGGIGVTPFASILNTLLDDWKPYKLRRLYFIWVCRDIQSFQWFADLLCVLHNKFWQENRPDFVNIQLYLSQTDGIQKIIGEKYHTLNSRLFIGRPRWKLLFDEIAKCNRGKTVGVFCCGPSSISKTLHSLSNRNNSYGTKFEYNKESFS
Put plainly: co-IP; NOX4 immunoprecipitation from lung macrophages of Nox4 fl/fl mice exposed to MMVF or asbestos for 21 days, immunoblot for TIM23.

Experiment [10] concerns the target T8, NOX4, endogenous in lung macrophages of Nox4 fl/fl mice (mouse (endogenous in lung macrophages of mice)). The experiment is described as follows: co-IP; NOX4 immunoprecipitation from isolated mitochondria of lung macrophages of Nox4 fl/fl mice exposed to MMVF or asbestos (digitonin, then sonication), immunoblot for TIM23.

Where a chain is given by its changes, count along the chain named. No constants are given. Whether binding was seen depends on the method and setting. Binding seen in cells or lysates may run through a third protein. Some binding calls cover weakened binding; strength is not graded here. For some of these results: Where a sequence is shown, tags or fusion partners need not be part of it.

B1: TIM23, endogenous in cultured macrophages (protein, UniProt O14925 1-209)
chain: MEGGGGSGNKTTGGLAGFFGAGGAGYSHADLAGVPLTGMNPLSPYLNVDPRYLVQDTDEFILPTGANKTRGRFELAFFTIGGCCMTGAAFGAMNGLRLGLKETQNMAWSKPRNVQILNMVTRQGALWANTLGSLALLYSAFGVIIEKTRGAEDDLNTVAAGTMTGMLYKCTGGLRGIARGGLTGLTLTSLYALYNNWEHMKGSLLQQSL
On to B1, for which the binding entry in experiment [1] and in experiment [2] was “binds” throughout.

B2: TIM23 in cells transfected with GST-NOX4 constructs (protein, UniProt O14925 1-209)
chain: B1 chain
Regarding B2, the binding entry in [3] is “no binding”; in [4], “binds”; in experiment [5], “no binding”; in [6], “binds”; in experiment [7], “no binding”.

B3: TIM23, endogenous in human BAL lung macrophages (protein, UniProt O14925 1-209)
chain: B1 chain
As for B3, in experiment [8], the binding entry is recorded as “binds”.

B4: TIM23, endogenous in lung macrophages of Nox4 fl/fl mice (protein, UniProt Q9WTQ8 1-209)
chain: B1 chain with G6R, G8S, T11S, G13S, H28N, N105S, T183A, E198V
For the molecule B4, the binding entry in [9] and in experiment [10] was “binds” each time.
